Among all 39,000 compounds or so, about 220 (0.56%) showed activity. Some of the results follow.
Tested on: Escherichia coli K-12 BW25113
Experiment: relative growth (OD600 normalised to plate interquartile mean) (fraction); higher = less growth inhibition, active = 0.2 or less
Details: 50 µM; LB; incubation time: overnight (16-24 h)
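Also: static incubation at 37 °C against the wild-type strain, values averaged over two biological replicates.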

Question: `Cc1onc(-c2c(Cl)cccc2Cl)c1C(=O)NC1C(=O)N2C1SC(C)(C)C2C(=O)[O-].[Na+]` (stereo not given) was tested. Which relative growth did it give?
Answer: inactive: 0.981

Question: Which relative growth does the source give for `CC(=O)N[C@H]1CC[C@H](CCNC(=O)C2CC2)O[C@@H]1CO` here?
Answer: inactive: 0.965

Question: `O=C(O)C[C@H]1CSc2nccc(=O)n21` was tested. Which relative growth did it give?
Answer: inactive: 1.01

Question: Which relative growth does the source give for `COC(=O)[C@]12CCC(C)(C)C[C@H]1[C@H]1C(=O)C=C3[C@@]4(C)C=C(C#N)C(=O)C(C)(C)[C@@H]4CC[C@@]3(C)[C@]1(C)CC2` here?
Answer: inactive: 1.03

Question: With `CC(NCCC(c1ccccc1)c1ccccc1)c1ccccc1.Cl` (stereo not given) as the compound, how does the relative growth read?
Answer: inactive: 1.11

Question: How did the relative growth turn out when `CC(C)NC(=O)Nc1ccc2c(c1)C(=O)N([C@@H](C)CO)C[C@H](C)[C@H](CN(C)Cc1ccccc1)OCCCC[C@@H](C)O2` was run?
Answer: inactive: 0.983

Question: `Cc1noc(C)c1S(=O)(=O)Nc1ccc2c(c1)C(=O)N([C@H](C)CO)C[C@H](C)[C@@H](CN(C)Cc1ccccc1)OCCCC[C@@H](C)O2` was tested. Which relative growth did it give?
Answer: inactive: 0.986

Question: For `Cc1noc(C)c1NC(=O)Nc1ccc2c(c1)C(=O)N([C@H](C)CO)C[C@H](C)[C@H](CN(C)C(=O)NC1CCCCC1)OCCCC[C@@H](C)O2`, which relative growth is on record?
Answer: inactive: 1.01

Question: `CO[C@H](CN(C)S(=O)(=O)c1ccc(C)cc1)[C@H](C)CN([C@@H](C)CO)S(=O)(=O)c1cccc(Cl)c1` was tested. Which relative growth did it give?
Answer: inactive: 1.01

Question: With `O=Cc1ccc(CO)o1` as the compound, how does the relative growth read?
Answer: inactive: 0.988

Question: `CO[C@H]1CN(C)C(=O)c2cc(NC(=O)C3CCOCC3)ccc2OC[C@@H](C)N(Cc2cccnc2)C[C@@H]1C` was tested. Which relative growth did it give?
Answer: inactive: 0.96

Question: With `Cc1noc(C)c1S(=O)(=O)Nc1cccc2c1O[C@H](CN(C)S(=O)(=O)c1c(C)noc1C)[C@H](C)CN([C@@H](C)CO)C2=O` as the compound, how does the relative growth read?
Answer: inactive: 1.03

Question: How did the relative growth turn out when `COc1ccccc1C#Cc1ccc2c(c1)O[C@H](CN(C)Cc1cncnc1)[C@@H](C)CN([C@@H](C)CO)S2(=O)=O` was run?
Answer: inactive: 1.05

Question: With `C[C@@H]1CCCCO[C@H](CN(C)C(=O)Nc2ccccc2)[C@H](C)CN([C@@H](C)CO)C(=O)c2cc(NC(=O)Nc3ccc4c(c3)OCO4)ccc2O1` as the compound, how does the relative growth read?
Answer: inactive: 1.02

Question: Which relative growth does the source give for `C[C@H](CO)N1C[C@H](C)[C@@H](CN(C)C(=O)Nc2ccc(F)cc2)OCCCC[C@H](C)Oc2ccc(NC(=O)Nc3ccccc3)cc2C1=O` here?
Answer: inactive: 1.01

Question: How did the relative growth turn out when `Cc1noc(C)c1NC(=O)Nc1ccc2c(c1)C(=O)N([C@@H](C)CO)C[C@@H](C)[C@H](CN(C)Cc1ccc(Cl)c(Cl)c1)OCCCC[C@@H](C)O2` was run?
Answer: inactive: 1.07

Question: `COc1ccc(S(=O)(=O)Nc2ccc3c(c2)C(=O)N([C@H](C)CO)C[C@H](C)[C@H](CN(C)S(=O)(=O)c2ccccc2)O3)cc1` was tested. Which relative growth did it give?
Answer: inactive: 1.02

Question: With `C[C@@H]1CN([C@@H](C)CO)C(=O)c2cccc(NC(=O)NC3CCCCC3)c2O[C@H]1CN(C)Cc1ccc(Oc2ccccc2)cc1` as the compound, how does the relative growth read?
Answer: inactive: 1.01

Question: How did the relative growth turn out when `COc1cc(/C=C/C(=O)c2c(NCCc3ccccc3)sc(-c3ccc(O)c(OC)c3)cc2=O)ccc1O` was run?
Answer: inactive: 1

Question: Which relative growth does the source give for `COc1ccc(NC(=O)N(C)C[C@@H]2Oc3ccc(NC(=O)CCN4CCOCC4)cc3C(=O)N([C@@H](C)CO)C[C@@H]2C)cc1` here?
Answer: inactive: 0.984

Question: Which relative growth does the source give for `COc1ccc(NC(=O)Nc2ccc3c(c2)C(=O)N([C@H](C)CO)C[C@@H](C)[C@H](CN(C)CC2CC2)OCCCC[C@@H](C)O3)cc1` here?
Answer: inactive: 0.979

Question: Which relative growth does the source give for `C[C@H](CO)N1C[C@H](C)[C@@H](CN(C)S(C)(=O)=O)Oc2ccc(NC(=O)CCN3CCOCC3)cc2CC1=O` here?
Answer: inactive: 0.942

Question: How did the relative growth turn out when `C[C@@H]1CN([C@@H](C)CO)C(=O)c2cccc(NC(=O)Nc3ccc4c(c3)OCO4)c2O[C@H]1CN(C)Cc1ccc(C(F)(F)F)cc1` was run?
Answer: inactive: 0.87

Question: `COC(=O)CCCCCCC(=O)Nc1ccc([C@H]2O[C@@H](CN(C)Cc3ccccc3)C[C@H](c3ccccc3)O2)cc1` was tested. Which relative growth did it give?
Answer: inactive: 0.996

Question: For `C[C@@H]1CN([C@H](C)CO)C(=O)c2cc(NC(=O)Nc3cccc4ccccc34)ccc2O[C@@H](C)CCCCO[C@@H]1CN(C)CC1CCCCC1`, which relative growth is on record?
Answer: inactive: 1.01

Question: With `C[C@@H]1CCCCO[C@@H](CN(C)C(=O)CCC(F)(F)F)[C@@H](C)CN([C@H](C)CO)C(=O)c2cc(NS(=O)(=O)c3ccccc3)ccc2O1` as the compound, how does the relative growth read?
Answer: inactive: 0.997

Question: `C[C@@H]1CN([C@@H](C)CO)C(=O)c2cc(NC(=O)Nc3ccc4c(c3)OCO4)ccc2O[C@H]1CN(C)Cc1ccc(Cl)c(Cl)c1` was tested. Which relative growth did it give?
Answer: inactive: 1.04

Question: Which relative growth does the source give for `C[C@H]1CN([C@@H](C)CO)C(=O)CCCn2nncc2CO[C@H]1CN(C)C(=O)c1cc(-c2ccccc2)on1` here?
Answer: inactive: 0.993

Question: With `O=C(C[C@H]1CC[C@H](NS(=O)(=O)c2ccc(F)cc2)[C@@H](CO)O1)NCc1ccc(Cl)c(Cl)c1` as the compound, how does the relative growth read?
Answer: inactive: 1

Question: For `C[C@H]1CN([C@@H](C)CO)S(=O)(=O)c2ccc(C#CCN(C)C)cc2O[C@@H]1CN(C)S(C)(=O)=O`, which relative growth is on record?
Answer: inactive: 0.994

From the supplement of paper PMC9446081
